Laboratory results taken from PubChem BioAssay AID493208 (National Center for Advancing Translational Sciences (NCATS), 2011).
The campaign covered roughly 44,000 compounds. About 340 (0.77%) were called active. About 5% were inconclusive and are not listed. Calls come from the whole dose curve; as a rule, active = well fitted inhibition curve with a large enough effect; inconclusive = small, poorly fitted or top-dose-only effect; inactive = flat fitted curve, though single readings scatter. This is one part of the list.

Experiment: Acumen qHTS Assay for Inhibitors of the mTORC1 Signaling Pathway in MEF (Tsc2-/-, p53-/-) Cells: Sytravon;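 note: plate controls were DMSO for no effect and rapamycin for full effect; nearly all actives have a fitted effect of over 50% in size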
Details: phospho-rpS6 immunofluorescence/PI, 24 h; series mostly up to 38.3 µM; activity change, negative = inhibition: at the top concentration
Procedure, shortened: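 Tsc2-/-, p53-/- mouse embryonic fibroblasts (empty-vector line) exposed to compound 24 hrs at 37 C, fixed, immunostained for phospho-rpS6 and counterstained with propidium iodide. Acumen laser scanning gives % positive cells from Alexa 488/PI ratio, thresholded using 7.5 nM rapamycin; PI count gives viability.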

Row | SMILES | activity change, negative = inhibition
1 | CCN(C(=O)CCc1nc(-c2ccc(C)cc2)no1)c1cccc(C(F)(F)F)c1 | inactive: 1.56%
2 | CCOC(=O)c1c(C)[nH]c(CCC(=O)Nc2ccccc2C(F)(F)F)c1C | inactive: -0.936%
3 | CCCS(=O)(=O)N1CC(=O)N(c2cccc(F)c2)C(C)(C(=O)NC2CCCCCC2)C1 (stereo not given) | inactive: 1.05%
4 | COc1ccc(C(=O)Nc2ccc(S(=O)(=O)Nc3cc(C)nc(C)n3)cc2)cc1 | inactive: -10.7%
5 | O=C(CCS(=O)(=O)c1cc2c(cc1Cl)NC(=O)CO2)NCCc1ccccc1 | inactive: 6.58%
6 | COc1cc(CNc2ccc3[nH]c(=O)[nH]c3c2)ccc1OCc1ccc(F)cc1Cl | inactive: -12.8%
7 | COC(=O)c1ccc2c(=O)n3nc(Nc4ccc(F)cc4F)sc3nc2c1 | inactive: -3.91%
8 | COc1ccc(CN2CCc3c(c(=O)n4ncc(C(=O)N5CCN(c6ccccc6F)CC5)c4n3C)C2)cc1 | inactive: 3.52%
9 | Cc1cccc(N2CCN(C(=O)c3nn(C)c4c3CS(=O)(=O)c3ccccc3-4)CC2)c1C | inactive: 7.95%
10 | CS(=O)(=O)N(Cc1ccccc1)c1ccc(C(=O)Nc2cccc(Cl)c2)cc1 | inactive: 9.76%
11 | COc1ccc(CNC(=O)c2ccc3c(O)c(S(=O)(=O)c4ccccc4)c(=O)[nH]c3c2)cc1 | inactive: 2.09%
12 | COc1ccc(NC(=O)c2c(NC(=O)C(F)(F)F)sc3c2CCCCC3)cc1 | inactive: -14.6%
13 | CCCCC1CCC(C(=O)N2CC(=O)Nc3ccc(C)cc3C2c2ccc(F)cc2)CC1 (stereo not given) | inactive: 0.713%
14 | COc1ccc(Cn2ccc3nc(C)c(C(=O)N4CCN(c5cccc(OC)c5)CC4)cc3c2=O)cc1 | inactive: -14.1%
15 | O=C(Nc1cccc(C(F)(F)F)c1)Nc1nnc(N2CCCCCC2)s1 | inactive: -12.2%
16 | COCCCNC(=O)CN1C(=O)c2cccnc2Sc2ccccc21 | inactive: -5.09%
17 | CC(=O)c1cccc(NC(=O)CN2C(=O)CCc3cc(S(=O)(=O)N4CCCCC4)ccc32)c1 | inactive: 0%
18 | COc1ccccc1N1CCN(C(=O)c2cc(-c3ccc(C)c(F)c3)on2)CC1 | inactive: -1.61%
19 | COc1cccc2cc(C(=O)Nc3ccc(CC(=O)O)cc3)c(=O)oc12 | inactive: -4.57%
20 | CCOc1ccc(S(=O)(=O)N2Cc3ccccc3CC2C(=O)Nc2ccc(NC(C)=O)cc2)cc1 (stereo not given) | inactive: 1.95%
21 | CCCCN1CC(c2nc3ccccc3n2CCCCOc2cc(C)cc(C)c2)CC1=O (stereo not given) | inactive: 2.57%
22 | COc1ccc(-c2cc(C(=O)Nc3sc4c(c3C(N)=O)CCCC4)no2)cc1 | inactive: -2.53%
23 | CCN(CC)CCNC(=O)C(=O)Nc1c2c(nn1-c1ccc(F)cc1)CSC2 | inactive: 1.46%
24 | Cc1c(C(=O)OCCOc2ccccc2)[nH]c2c1C(=O)CC(c1ccc(C(C)(C)C)cc1)C2 (stereo not given) | inactive: -3.99%
25 | CCn1c2c(c(=O)n3ncc(C(=O)Nc4cc(Cl)ccc4OC)c13)CN(Cc1ccc(OC)cc1)CC2 | inactive: -0.0481%
